About 4,500 (2.2%) of roughly 200,000 compounds were called active. Inconclusive results, whose numbers are uncertain, are shown with a selection of clear calls. Calls follow the shape of the dose curve; as a rule, active = well fitted inhibition curve with a large enough effect; inconclusive = small, poorly fitted or top-dose-only effect, or effect the other way; inactive = flat fitted curve, though single readings scatter. Potencies beside an inconclusive call are fits to weak or partial responses and may not hold up.
Molecular target: Cruzipain (Trypanosoma cruzi) (UniProt P25779)
Test: qHTS Assay for Promiscuous and Specific Inhibitors of Cruzain (without detergent); also: nearly all actives have a fitted effect of over 40% in size;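 as to max response, negative = inhibition: plate controls were enzyme without inhibitor for no effect and buffer without enzyme for full effect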
Settings: purified cruzain, Z-FR-AMC fluorescence, no detergent
How it was run: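 Purified cruzain at 1.5 nM, pre-incubated 15 min with compound at room temperature in 100 mM sodium acetate pH 5.5, 5 mM DTT, 0.00005% Triton X-100. Reaction started with 2 uM Z-FR-AMC; AMC fluorescence increase over 60 s gives rate.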
Potency is read from the fitted curve at half-maximal effect; tags tell the direction and shape of the fitted curve.

Chain of UniProt P25779 (P25779 whole entry, looked up): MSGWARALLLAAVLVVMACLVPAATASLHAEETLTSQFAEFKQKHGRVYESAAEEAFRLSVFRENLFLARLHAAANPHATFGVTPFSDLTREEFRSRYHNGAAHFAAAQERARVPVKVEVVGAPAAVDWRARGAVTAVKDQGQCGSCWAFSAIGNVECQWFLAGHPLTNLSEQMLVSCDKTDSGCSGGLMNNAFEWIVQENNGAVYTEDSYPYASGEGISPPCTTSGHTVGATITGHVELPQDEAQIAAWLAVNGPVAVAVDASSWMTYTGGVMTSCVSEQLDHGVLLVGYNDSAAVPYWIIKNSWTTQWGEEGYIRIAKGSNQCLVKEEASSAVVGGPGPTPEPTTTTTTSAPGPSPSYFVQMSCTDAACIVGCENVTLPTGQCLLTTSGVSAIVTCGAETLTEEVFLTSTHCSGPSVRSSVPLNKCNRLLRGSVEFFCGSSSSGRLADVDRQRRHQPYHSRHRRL

Structure (SMILES) | Potency | max response, negative = inhibition
O=C(CN(Cc1ccccc1Cl)C(=O)c1ccc(CN2CCOCC2)o1)NCc1ccccc1 | inconclusive: 39.8 µM [activator, single point] | 
O=C(NCc1ccco1)c1sc2cccc(F)c2c1Cl | inconclusive: 25.1 µM [inhibitor, single point] | 
Cc1ccc(-c2ccc(=O)n(CC(=O)N3CCN(c4cc(Cl)ccc4C)CC3)n2)cc1 | inconclusive: 20 µM [activator, single point] | 
Cc1cccc(C(=O)Oc2c(Sc3ccccc3)c(C)nn2C(C)(C)C)c1 |  | inactive: -16.7%
COc1cccc(C(=O)/C=C/Nc2ccc(S(=O)(=O)Nc3cccc(C(C)=O)c3)cc2)c1 | inconclusive: 39.8 µM [inhibitor, single point] | 
CCCn1c2ccc(F)cc2c2nnc(SCCN(CC)CC)nc21 | active: 3.98 µM | 
c1ccc2[nH]c(CSc3nc4ccccc4o3)nc2c1 | active: 12.6 µM | 
Cc1ccc(CN2CCCn3nc(C(=O)NCCc4ccccc4Cl)cc3C2=O)cc1 |  | inactive: -3.47%
Cc1nn(C)c2c1c(-c1ccccc1)cc(=O)n2CC(=O)NC(C)C |  | inactive: 6.64%
CC1(C)Cc2nc3oc4c(N(CCO)Cc5ccccc5)ncnc4c3cc2CO1 | inconclusive: 39.8 µM [activator, single point] | 
NC(=O)C1CCN(S(=O)(=O)c2ccc(N3CCCCS3(=O)=O)cc2)CC1 |  | inactive: 3.7%
Cc1csc(NC(=O)CSc2nnc(NC(=O)COc3ccc(Cl)cc3)s2)n1 | active: 5.01 µM | 
N#Cc1ccc(C(=O)Nc2cc(S(=O)(=O)Nc3ccc(Cl)cc3)ccc2N2CCCCC2)cc1 | inconclusive: 15.8 µM [inhibitor, partial curve, poor fit] | 
COc1cc(/C=C2/SC(=S)N(CC(=O)NC(C)(C)C)C2=O)cc(OC)c1OC | inconclusive: 25.1 µM [activator, single point] | 
Cc1cc(C)cc(Oc2coc3cc(OC(=O)c4cccs4)ccc3c2=O)c1 | inconclusive: 31.6 µM [inhibitor, single point] | 
Cc1ccc(NC(=O)c2ccc(=O)n(Cc3ccccc3C)c2)c(C)c1 |  | inactive: -6.67%
Cc1nc(NCc2ccccc2)c2nc(-c3ccccc3)n(CCN3CCCCC3)c2n1 |  | inactive: -1.75%
Cc1ccc(OCC(=O)Nn2c(C)nc3ccccc3c2=O)c(C(C)C)c1 | inconclusive: 31.6 µM [activator, partial curve] | 
O=C1CN(C(=O)CSc2nnc(-c3ccccc3)n2Cc2ccc3c(c2)OCO3)c2ccccc2N1 | active: 12.6 µM | 
COc1ccc(N2C(=O)CSC23C(=O)N(Cc2cccc(F)c2)c2ccccc23)cc1Cl (configuration not stated) | inconclusive: 31.6 µM [inhibitor, single point] | 
Cc1ccc(C(=O)C(C)OC(=O)c2cc3cc([N+](=O)[O-])ccc3oc2=O)cc1 (configuration not stated) | inconclusive: 25.1 µM [inhibitor, single point] | 

Structure (SMILES) | Potency | max response, negative = inhibition
CCc1cccc(CC)c1NC(=O)NC1CCCCC1 | inconclusive: 39.8 µM [inhibitor, single point] | 
CC(C)c1cccc(C(C)C)c1NC(=O)COC(=O)c1ccc2c(c1)S(=O)(=O)c1ccccc1C2=O | inconclusive: 39.8 µM [inhibitor, single point] | 
Cc1ccc(-n2nc(C)c3c(C)cc(=O)n(CC(=O)Nc4cccc(C)c4C)c32)cc1 |  | inactive: -4.68%
O=C(COc1ccc(Br)cc1)Nc1ccc(-c2nnc(-c3ccco3)o2)cc1 | active: 10 µM | 
CC(C)(C)C(=O)NCC12C=CC(O1)C1C(=O)N(c3ccccc3)C(=O)C12 (configuration not stated) | inconclusive: 7.94 µM [activator, single point] | 
Cc1[nH]c2ccccc2c1C(=O)CN1C(=O)NC(C)(c2ccc(Cl)cc2Cl)C1=O (configuration not stated) | inconclusive: 39.8 µM [activator, single point] | 
COc1ccc(C(C)(C)C)cc1NC(=O)CNc1cccc2ccccc12 | inconclusive: 39.8 µM [inhibitor, single point] | 
CCc1ccc(NS(=O)(=O)c2[nH]ncc2C(=O)OC)cc1 |  | inactive: 6.69%
CCC(C)NC(=O)c1sc2nc(C)c(C(=O)Nc3ccc(C)cc3C)c(-c3ccc(NC(C)=O)cc3)c2c1N (configuration not stated) | inconclusive: 10 µM [activator, partial curve] | 
COCCNc1ccc2cc(S(=O)(=O)N3CCCCC3)ccc2n1 |  | inactive: -7.12%
COC(=O)[C@@]1(Cc2ccc(OC)cc2)[C@H]2c3cc(C(=O)N4CCCC4)n(CCn4cc([N+](=O)[O-])nc4C)c3C[C@H]2CN1C(=O)c1ccccc1 | inconclusive: 15.8 µM [activator, partial curve] | 
Cc1c(Cl)cccc1N/C(SCC(=O)N1CCCCCC1)=C(/C#N)c1nc2ccccc2s1 | active: 10 µM | 
Clc1cccc(-c2cc3nc4c(c(N5CCNCC5)n3n2)CCCC4)c1 | active: 25.1 µM | 
CC(C)Oc1ccc(C(=O)Nc2ccc(N3CCCC3)cc2)cc1 | active: 3.98 µM | 
Cc1ccccc1CCNC(=O)c1ccc2c(c1)nc1n2CCCCC1 |  | inactive: 6.02%
O=S(=O)(c1ccc(S(=O)(=O)N(Cc2ccco2)Cc2ccccc2Cl)cc1)N1CCCC1 | inconclusive: 25.1 µM [inhibitor, single point] | 
Cc1ccc(C(c2c(O)cc(C)n(Cc3ccco3)c2=O)N2CCC(C)CC2)cc1 (configuration not stated) | inconclusive: 39.8 µM [inhibitor, single point] | 
O=C(COC(=O)c1ccccc1NCc1ccco1)Nc1ccc2c(c1)OCO2 | inconclusive: 39.8 µM [inhibitor, single point] | 
COc1ccc(-c2cc(-c3ccccc3)c(C#N)c(S(C)=O)n2)cc1 (configuration not stated) | inconclusive: 15.8 µM [activator, partial curve] | 
O=C(NCc1ccccc1)C(=O)Nc1c2c(nn1-c1ccccc1)CSC2 | inconclusive: 25.1 µM [inhibitor, partial curve, poor fit] | 
COc1cccc(-c2csc(N3CCN(CC(=O)NNC(=O)c4ccc(Cl)cc4)CC3)n2)c1 | inconclusive: 15.8 µM [inhibitor, partial curve] | 

— PubChem BioAssay AID1476 (National Center for Advancing Translational Sciences (NCATS), 2009)
